Data published in PubChem BioAssay AID1460 (National Center for Advancing Translational Sciences (NCATS), 2008).
“And” between values parts separate entries of the source, which are not always exact repeats. Identical values can stand only once. The whole screen tested about 270,000 compounds, of which about 5,800 (2.1%) were called active. This list was built around the results that the source calls inconclusive (neither active nor inactive); the mix of calls is not that of the screen. The call rests on the fitted dose curve; in most records, active means well fitted inhibition curve with a large enough effect; inconclusive means small, poorly fitted or top-dose-only effect; inactive means flat fitted curve, though single readings scatter. Where the call is inconclusive, the potency comes from a doubtful curve fit.

Target: Microtubule-associated protein tau (Homo sapiens) (UniProt P10636)
Assay: qHTS for Inhibitors of Tau Fibril Formation, Thioflavin T Binding; further: nearly all actives have a fitted effect of over 55% in size
Conditions: recombinant tau K18 P301L (four-repeat tau fragment), heparin-induced fibrillization, ThT fluorescence; series mostly up to 57.4 µM; activity, negative = inhibition: at the top concentration
Method in brief: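 Heparin-induced (20 uM) aggregation of recombinant human K18 P301L tau, 15 uM unlabeled with 0.24 uM labeled, pH 7 acetate buffer, 6 hr at 37 C with compound. Fibrils quantified by 30 uM ThT fluorescence after 1 hr ambient incubation.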
On the % scale 0 is the no-effect control and ±100 the full control effect; potency means the concentration at half of the fitted maximal effect; tags describe the fitted curve by direction and shape.

Sequence of UniProt P10636 (P10636 whole entry, looked up): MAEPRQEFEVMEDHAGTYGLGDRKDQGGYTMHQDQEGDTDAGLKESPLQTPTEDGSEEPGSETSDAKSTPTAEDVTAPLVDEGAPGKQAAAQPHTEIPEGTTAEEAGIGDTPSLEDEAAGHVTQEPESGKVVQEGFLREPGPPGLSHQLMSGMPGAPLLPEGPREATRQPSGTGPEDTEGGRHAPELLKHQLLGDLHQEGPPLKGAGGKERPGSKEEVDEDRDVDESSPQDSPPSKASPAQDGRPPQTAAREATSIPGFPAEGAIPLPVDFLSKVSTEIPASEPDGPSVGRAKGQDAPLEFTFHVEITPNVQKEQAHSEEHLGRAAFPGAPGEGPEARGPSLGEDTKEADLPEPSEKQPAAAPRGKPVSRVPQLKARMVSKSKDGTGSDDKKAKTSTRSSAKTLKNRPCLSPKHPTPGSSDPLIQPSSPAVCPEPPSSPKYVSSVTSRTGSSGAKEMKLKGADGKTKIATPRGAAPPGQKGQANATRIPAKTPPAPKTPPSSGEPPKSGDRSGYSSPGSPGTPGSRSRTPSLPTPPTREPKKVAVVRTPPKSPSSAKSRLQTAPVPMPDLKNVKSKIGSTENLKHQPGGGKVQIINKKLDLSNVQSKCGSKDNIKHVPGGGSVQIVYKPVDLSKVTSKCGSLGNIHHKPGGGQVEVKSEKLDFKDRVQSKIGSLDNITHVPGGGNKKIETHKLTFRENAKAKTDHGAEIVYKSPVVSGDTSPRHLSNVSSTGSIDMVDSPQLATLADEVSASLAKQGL

Row | SMILES | Potency | activity, negative = inhibition
1 | CCCCN1C(C(=O)c2ccccc2)=C(OC(=O)CC)c2ccccc2S1(=O)=O | inconclusive: 28.2 µM [inhibitor, partial curve] | 
2 | O=c1c2sc3ccccc3c2n(Cc2cccc(Cl)c2)c(=O)n1Cc1ccc(F)cc1 |  | inactive: -2.67%
3 | Cc1ccccc1CN1C(=O)C(O)(c2c[nH]c3ccccc23)c2cc(Cl)ccc21 (stereo not drawn) |  | inactive: 1.67%
4 | COc1cccc(CNC(=O)C2CCCN(c3nn4cc(-c5ccc(C)cc5)nc4s3)C2)c1 (stereo not drawn) | inconclusive: 1.78 µM [inhibitor, full curve] | 
5 | CCOC(=O)C1(Cc2cccc(OC)c2)CCN(C(C)CC(C)(C)O)CC1 (stereo not drawn) | inconclusive: 12.6 µM [inhibitor, partial curve] | 
6 | COc1ccc(NC(=O)/C(C#N)=C/c2ccc(OCc3ccccc3F)cc2)cc1 | inconclusive: 0.501 µM [inhibitor, full curve] | 
7 | CC1CCN(S(=O)(=O)c2ccc3c(c2)N(CC(=O)N(C)Cc2ccccc2)C(=O)CO3)CC1 |  | inactive: -3.96%
8 | CCN(CC)c1cc(NC2CCCCC2)c2c3c(onc13)-c1ccccc1C2=O | active: 11.2 µM | 
9 | Cn1c(=O)c2c(nc(N3CCc4ccccc4C3)n2Cc2ccccc2F)n(C)c1=O | inconclusive: 22.4 µM [inhibitor, partial curve, poor fit] | 
10 | CCCCCCCCCCCCCCSCC(=O)O | inconclusive: 39.8 µM [inhibitor, single point] and inconclusive: 14.1 µM [inhibitor, partial curve] | 
11 | O=C(Nc1cccc(C(F)(F)F)c1)c1ccc2nc(-c3ccco3)c(-c3ccco3)nc2c1 | active: 14.1 µM | 
12 | CCN(CC)c1ccc(/C=N/N2CCN(Cc3cccc4ccccc34)CC2)c(O)c1 | inconclusive: 11.2 µM [inhibitor, partial curve] | 
13 | Cc1ccc(S(=O)(=O)NCCCNc2ccc([N+](=O)[O-])cc2)cc1 | inconclusive: 12.6 µM [inhibitor, partial curve] | 
14 | COC(=O)c1sccc1S(=O)(=O)N(CC(=O)NCc1ccc(F)cc1)c1ccccc1 |  | inactive: -6.87%
15 | Cc1nc2ccccc2c2oc(C(=O)N3CCN(C(=O)c4ccco4)CC3)cc12 |  | inactive: -4.81%
16 | Cc1cccc(NC(=O)Cn2c(=O)n(Cc3nc(-c4ccccc4)no3)c(=O)c3ccccc32)c1 | inconclusive: 3.98 µM [activator, full curve] | 
17 | N#C/C(=C\Nc1ccccc1O)c1nc2ccccc2o1 | inconclusive: 25.1 µM [inhibitor, partial curve] | 
18 | CCCCCCc1cc2cc(-c3nnc(-c4ccccc4)o3)c(=O)oc2cc1O | inconclusive: 20 µM [inhibitor, single point] | 
19 | CCOC(=O)/C(C#N)=C/c1ccc(N2CCN(Cc3ccccc3)CC2)cc1 | inconclusive: 5.62 µM [inhibitor, partial curve] | 
20 | CN1CCc2c(sc3nc(SCC(N)=O)n(-c4ccccc4)c(=O)c23)C1 | inconclusive: 28.2 µM [inhibitor, single point] | 
21 | Cc1cc2ccccc2n1CCNC(=O)c1cccs1 | inconclusive: 31.6 µM [inhibitor, single point] | 
22 | COc1cccc(CCNc2ccc(N3C(=O)CC(C)C3=O)cc2[N+](=O)[O-])c1 (stereo not drawn) | inconclusive: 14.1 µM [inhibitor, partial curve] | 
23 | Cc1ccc2nc(N/N=C\c3ccc([N+](=O)[O-])o3)nc(-c3ccccc3)c2c1 | active: 3.16 µM | 

Row | SMILES | Potency | activity, negative = inhibition
24 | Cc1ccc(Oc2cc([N+](=O)[O-])cc3c2C(=O)Nc2ccccc2O3)cc1 | inconclusive: 14.1 µM [inhibitor, partial curve] | 
25 | CCOC(=O)c1ccc(N2C(=O)CC(Sc3nnc(C)s3)C2=O)cc1 (stereo not drawn) | inconclusive: 25.1 µM [inhibitor, partial curve] | 
26 | Cc1ccc(N(C)S(=O)(=O)c2nnc(NC(=O)c3ccco3)s2)cc1 | inconclusive: 1.78 µM [inhibitor, full curve, poor fit] | 
27 | COc1ccc(/C(N)=N/OC(=O)c2ccc(C)c([N+](=O)[O-])c2)cc1OC | inconclusive: 1.78 µM [inhibitor, full curve] | 
28 | O=C(N1CCOCC1)C1(c2ccccc2)CCCCC1 |  | inactive: -11.2%
29 | CCCCNC(=O)CN1CCN(c2ccc(NC(=O)c3ccc(OC)cc3)cc2C(=O)O)CC1 |  | inactive: -5.75%
30 | COc1ccc(-c2nc(SCC(=O)NCC3CCCO3)c(-c3ccc(C)cc3)[nH]2)cc1OC (stereo not drawn) | inconclusive: 7.08 µM [inhibitor, partial curve] | 
31 | CCOc1ccc2nc(SCC(=O)c3ccc(Cl)s3)sc2c1 | inconclusive: 12.6 µM [inhibitor, partial curve] | 
32 | C#CCN(C)CCCOc1ccc(Cl)cc1Cl | inconclusive: 31.6 µM [inhibitor, single point] | 
33 | O=C1C=C(Nc2ccc(Cl)cc2)CC(c2ccc(Cl)cc2)C1 (stereo not drawn) | inconclusive: 15.8 µM [inhibitor, partial curve] | 
34 | CC(C)Cc1nnc(NC(=O)c2cc(-c3ccncc3)nc3ccccc23)s1 | inconclusive: 28.2 µM [inhibitor, partial curve] | 
35 | Cc1ccc(N(CC(=O)N2CCOCC2)S(=O)(=O)c2ccccc2)cc1 |  | inactive: -2.02%
36 | CCCOC(=O)c1c(NC(=O)CCC(=O)O)sc2c1CCCCC2 |  | inactive: -10.2%
37 | Cc1cc(-c2nn(-c3ccccc3F)cc2CNCCc2cnc[nH]2)c(C)s1 |  | inactive: -19.5%
38 | COc1ccc2cc3c(N)c(C(=O)N4CCCC4)sc3nc2c1 | active: 11.2 µM | 
39 | Cc1nnc(SCc2nc3sc(C(=O)O)c(C)c3c(=O)[nH]2)s1 | inconclusive: 39.8 µM [inhibitor, single point] | 
40 | Cc1cs/c(=N\N=C\c2cccc([N+](=O)[O-])c2)n1Cc1ccco1 | inconclusive: 2.24 µM [inhibitor, full curve] | 
41 | CCOC(=O)N1CCN(Cc2nc3cc(NC(=O)c4ccc([N+](=O)[O-])cc4)ccc3n2C(C)C)CC1 | inconclusive: 39.8 µM [inhibitor, single point] | 
42 | Cc1[nH]n(-c2ccccc2)c(=O)c1C(=O)c1ccc([N+](=O)[O-])cc1 | inconclusive: 22.4 µM [inhibitor, partial curve] | 
43 | COc1ccc(C2CC(=O)Nc3sc(=N)c4c(N)c(C#N)c(N)nc4c32)cc1OC (stereo not drawn) | inconclusive: 14.1 µM [inhibitor, partial curve] | 
44 | Cc1nc(N2CCN(C(=O)COc3ccccc3)CC2)c2c(C)c(C)sc2n1 | inconclusive: 39.8 µM [inhibitor, partial curve, poor fit] | 
45 | COc1ccc(Nc2nc(CN3CCOCC3)nc3sc4c(c23)CCC(C)C4)cc1OC (stereo not drawn) |  | inactive: 0.0413%
46 | CC1=NN(C(=O)c2cccc(Cn3nc(C)c([N+](=O)[O-])c3C)c2)C(O)(C(F)(F)F)C1 (stereo not drawn) |  | inactive: -0.258%

Row | SMILES | Potency | activity, negative = inhibition
47 | CCOc1ccc(C2C(C(N)=O)=C(C)Nc3nc(-c4cccc(Cl)c4)nn32)cc1OC (stereo not drawn) | inconclusive: 28.2 µM [activator, single point] | 
48 | O=C(O/N=C(\c1ccccc1)c1ccccn1)c1cccc2ccccc12 | inconclusive: 22.4 µM [inhibitor, single point] | 
49 | CCOC(=O)Cc1cc(=O)n2[nH]c(-c3ccc(C)cc3)cc2n1 | inconclusive: 20 µM [inhibitor, partial curve] | 
50 | Cn1nnnc1SCc1nc2scc(-c3ccc(Cl)cc3)c2c(=O)[nH]1 | inconclusive: 12.6 µM [inhibitor, single point] | 
51 | CCCCC(CC)C(=O)Nc1ccc(Nc2ccccc2)cc1 (stereo not drawn) | inconclusive: 12.6 µM [inhibitor, partial curve] | 
52 | Cc1cc2c(cc1C)NC(c1c(C)n(C)n(-c3ccccc3)c1=O)C1=C(CC(C)(C)CC1=O)N2 (stereo not drawn) | inconclusive: 10 µM [activator, partial curve] | 
53 | Cc1cc(C)c[n+](-c2[nH]c(=O)sc2/C=N/N=C(\N)[S-])c1 |  | inactive: -6.96%
54 | O=C(COc1cccnc1[N+](=O)[O-])Nc1ccc(Cl)c(S(=O)(=O)N2CCOCC2)c1 |  | inactive: -11.5%
55 | Cc1ccc(-c2nc3c(c(=O)[nH]c(=O)n3Cc3ccccc3)n2C)o1 | inconclusive: 28.2 µM [inhibitor, single point] | 
56 | NCCCC[C@@H]1NC(=O)c2cc([N+](=O)[O-])cc(I)c2SC[C@@H](C(N)=O)NC(=O)[C@H](Cc2ccc(O)cc2)NC1=O | inconclusive: 17.8 µM [inhibitor, partial curve] | 
57 | CCCCCC(=O)Nc1ccc(-c2csc(C)n2)cc1 |  | inactive: 5.8%
58 | CCOC(=O)c1c(C)oc2nc(C)nc(N3CCN(c4cccc(C)c4C)CC3)c12 | inconclusive: 39.8 µM [inhibitor, single point] | 
59 | Cc1cc(-n2c(C)cc(C(=S)N3CCOCC3)c2C)ccc1Br | inconclusive: 28.2 µM [inhibitor, single point] | 
60 | Nc1ccccc1-c1nc2ccccc2[nH]1 | inconclusive: 12.6 µM [inhibitor, partial curve] | 
61 | Cc1cc(Nc2cccc(C(F)(F)F)c2)nc2ccc(NC(=O)c3cccnc3)cc12 |  | inactive: -17.4%
62 | O=C(CCCOc1ccc(Cl)cc1Cl)N/N=C/c1cccc([N+](=O)[O-])c1 |  | inactive: 3.22%
63 | NNC(=O)c1ccc(N2CCc3ccccc32)c([N+](=O)[O-])c1 | active: 14.1 µM | 
64 | COc1ccc(Cc2nnc(NC(=O)C3CCCO3)s2)cc1 (stereo not drawn) |  | inactive: 9.63%
65 | Cc1ccc(-c2cnc(N)n2C)cc1C | inconclusive: 17.8 µM [inhibitor, single point] | 
66 | COc1ccc(NC(=O)C=C(C)C)cc1Cl |  | inactive: -5.37%
67 | N#Cc1cc2cc3c(cc2nc1SCC(=O)OC1CCCCC1)OCO3 |  | inactive: -13.4%
68 | CSc1ccc(NC(=O)Cn2nnnc2-c2ccccc2F)cc1 | inconclusive: 8.91 µM [inhibitor, single point] | 
